In patent US20240025993A1, “CD19 BINDING MOLECULES AND USES THEREOF” (NOVARTIS AG, priority 2020, published 2024):
Where two headings read alike, the source gives them in different places. Marks after values point to notes of the source that are not given here.

Assays:
Karpas422 target cells = assay: RTCC assay (Example 17); type: cell-based, human; conditions: E:T 1:1, 96 hour; H variants
Procedure: The purified TBMs were compared across multiple donor effector cells. Briefly, huCD19-expressing Nalm6 and Karpas422 target cells were engineered to overexpress firefly luciferase. Cells were harvested and resuspended in RPMI medium (Invitrogen #11875-093) with 10% FBS. 5,000 target cells per well were plated in a flat-bottom 384-well plate. Human pan T effector cells were isolated via negative selection (Stemcell Technologies #17951) from two donors from cryopreserved PBMCs that were separated from a leukopak (Hemacare #PB001F-1) by Ficoll density gradient centrifugation. Purified T cells were then added to the plate to obtain a final E:T ratio of 3:1, 1:1, 1:3 or 1:5. Co-cultured cells were incubated with serial dilutions of all constructs and controls. For normalization, average maximum luminescence refers to target cells co-incubated with effector cells, but without any test construct. After an incubation of 48, 72 or 96 hr at 37° C., 5% CO2, OneGlo luciferase substrate (Promega #E6120) was added to the plate. Luminescence was measured on an Envision plate reader after a 10 minute incubation. Percent specific lysis was calculated using the following equation: Specific lysis (%)=(1−(sample luminescence/average maximum luminescence))*100 […]

T cells = assay: TBM and BBM binding to T cells by flow cytometry (Example 19); set-up: species or system human; conditions: 33 μg/ml-0.005 μg/ml; H variants
Procedure: Peripheral blood mononuclear cells (PBMCs) previously isolated and cryopreserved from 2 Leukopak donors (Hemacare) were thawed and Pan T cells were isolated by negative selection using the Pan T cell Isolation Kit, human (Miltenyi Biotec, Cat #130-096-535) following the manufacturer's protocol. T cells were resuspended in FACS Buffer and 100,000 cells were added to each well of a 96 well round bottom plate. A dilution series of CD3med TSP1, CD3hi TSP1, CD3hi BSP1, and CD3hi TSP1C ranging from 33 μg/ml-0.005 μg/ml was added to cells and incubated on ice for 1 hour. Cells were washed twice, resuspended in 100 pl of anti-human IgG secondary antibody and incubated on ice for another hour. After the incubation, cells were washed twice, resuspended in 100 pl of fixable viability dye and incubated on ice for 30 min. After washing twice again, cells were resuspended in 120 pl of FACS buffer. The cells were then run on BD LSR Fortessa and data was analyzed using FlowJo to determine the MFI of anti-human IgG secondary antibody, which was plotted against antibody concentration.

Nalm6 target cells = assay: RTCC assay on multiple cell lines (Example 22); type: cell-based, human; conditions: E:T 1:1, 48 hour; H variants
Procedure: (§1) The purified TBMs were compared across multiple donor effector cells. Briefly, huCD19-expressing Nalm6 and Karpas422 target cells were engineered to overexpress firefly luciferase. Cells were harvested and resuspended in RPMI medium (Invitrogen #11875-093) with 10% FBS. 5,000 target cells per well were plated in a flat-bottom 384-well plate. Human pan T effector cells were isolated via negative selection (Stemcell Technologies #17951) from two donors from cryopreserved PBMCs that were separated from a leukopak (Hemacare #PB001F-1) by Ficoll density gradient centrifugation. Purified T cells were then added to the plate to obtain a final E:T ratio of 3:1, 1:1, 1:3 or 1:5. Co-cultured cells were incubated with serial dilutions of all constructs and controls. For normalization, average maximum luminescence refers to target cells co-incubated with effector cells, but without any test construct. After an incubation of 48, 72 or 96 hr at 37° C., 5% CO2, OneGlo luciferase substrate (Promega #E6120) was added to the plate. Luminescence was measured on an Envision plate reader after a 10 minute incubation. Percent specific lysis was calculated using the following equation: Specific lysis (%)=(1−(sample luminescence/average maximum luminescence))*100
(§2) Nalm6 KO was generated from Nalm6 parental cell line by using CRISPR-CAS9 technology and was confirmed to lack hCD19 expression. Oci-Ly19, Toledo, Nalm6, Nalm6 KO and K562 target cells were engineered to overexpress firefly luciferase. RTCC assays were performed with the different cells lines according to the Materials and Methods described in Example 9, but with a final E:T ratio of 1:1 and a 48 hour incubation.

Oci-Ly19 target cells = assay: RTCC assay on multiple cell lines (Example 22); type: cell-based, human; conditions: E:T 1:1, 48 hour; H variants
Procedure: as §1, §2

Toledo target cells = assay: RTCC assay on multiple cell lines (Example 22); type: cell-based, human; conditions: E:T 1:1, 48 hour; H variants
Procedure: as §1, §2

Karpas 422 cells = assay: Re-challenge RTCC assay (Example 24); type: cell-based, human; conditions: E:T 1:1; dose titration RTCC 2 nM-0.000001 nM; H variants
Procedure: (§3) OCI-LY-19 and Karpas422 target cells stably expressing firefly luciferase were plated in a Costar 6 well plate in T Cell Media (TCM). PBMCs previously isolated and cryopreserved from 2 Leukopak donors were thawed and Pan T cells were isolated (as described earlier). […] The plates were incubated for 4 days for OCI-LY-19 and 5 days for Karpas 422 cells. At the end of incubation, the killing of target cells was determined using the luminescence signal. The absolute T cell counts from each antibody treated condition was also determined. For the next round of rechallenge, it was ensured that the killing of target cells was equivalent across various antibody conditions. […] Additionally, a dose titration RTCC at a E:T of 1:1 and a concentration range of 2 nM-0.000001 nM was set-up using T cells from the different antibody treated conditions with a 4 day incubation used for each cell line. The killing of target cells was determined using the luminescence signal to generate dose response curves. At the end of the challenge, the above process was repeated once more for Karpas 422 and twice more for OCI-LY-19 cells.

OCI-LY-19 cells = assay: Re-challenge RTCC assay (Example 24); type: cell-based, human; conditions: E:T 1:1; dose titration RTCC 2 nM-0.000001 nM; H variants
Procedure: as §3

[1] = tested on: Daudi-Luc Burkitt's lymphoma subcutaneous tumor; assay: Daudi-Luc Burkitt's lymphoma subcutaneous tumor model, human PBMC adoptive transfer, NSG mice (Example 31); type: in vivo; conditions: single dose IV; for Regression (%): Day 36
Procedure: On Day 0, Daudi-Luc cells were harvested and suspended in a 1:1 mixture of Hanks Balanced Salt Solution (HBSS) and Matrigel at a concentration of 50×10^6 cells/mL.
Tumor volume and body weights were recorded twice weekly. Tumor volume was measured by caliper.
On day 36 following Daudi-Luc implantation, 25% of animals from the Tumor+AdT control group were euthanized due to tumor volume.

[2] = tested on: OCI-LY-19 diffuse large B-cell lymphoma tumor; conditions: mouse, in vivo, iv
[3] = tested on: OCI-LY-19 DLBCL subcutaneous tumor; assay: OCI-LY-19 DLBCL subcutaneous tumor model in huCD34+ NSG mice, single dose range finding (Example 30); conditions: single dose IV; for ΔT/ΔC (%): Day 24

B1: CD3med TSP1: trispecific as CD3hi TSP1 but with medium affinity (CD3med) anti-CD3 scFv; R and H variants (antibody)
heavy: QVQLVQSGAEVKKPGASVKVSCKASGYTFTTYWIQWVRQAPGQRLEWMGAVYPGDADTRYTQKFQGRVTLTADRSASTAYMELSSLRSEDTAVYYCGRDAGLEYYALDYWGQGTLVTVSSASTKGPSVFPLAPSSKSTSGGTAALGCLVKDYFPEPVTVSWNSGALTSGVHTFPAVLQSSGLYSLSSVVTVPSSSLGTQTYICNVNHKPSNTKVDKRVEPKSCGGGGSGGGGSEVQLVESGGGLVQPGGSLKLSCAASGFTFNTYAMNWVRQASGKGLEWVGRIRSKYNNYATYYADSVKDRFTISRDDSKNTAYLQMNSLKTEDTAVYYCVRHGNFGNSYVSWFAHWGQGTLVTVSSGGGGSGGGGSGGGGSGGGGSQAVVTQEPSLTVSPGGTVTLTCGSSTGAVTSSNYANWVQQKPGQAPRGLIGGTNKRAPWTPARFSGSLLGGKAALTLSGAQPEDEAEYYCALWYSNLWVFGGGTKLTVLGGGGSDKTHTCPPCPAPELLGGPSVFLFPPKPKDTLMISRTPEVTCVVVAVSHEDPEVKFNWYVDGVEVHNAKTKPREEQYASTYRVVSVLTVLHQDWLNGKEYKCKVSNKALAAPIEKTISKAKGQPREPQVCTLPPSREEMTKNQVSLSCAVKGFYPSDIAVEWESNGQPENNYKTTPPVLDSDGSFFLVSKLTVDKSRWQQGNVFSCSVMHEALHNHYTQKSLSLSPGK
light: EIVMTQSPATLSVSPGERATLSCRASQDVGTAVAWYQQKPGQAPRLLIYWASTRHTGIPARFSGSGSGTEFTLTISSLQSEDFAVYFCQQYANFPLYTFGQGTKLEIKRTVAAPSVFIFPPSDEQLKSGTASVVCLLNNFYPREAKVQWKVDNALQSGNSQESVTEQDSKDSTYSLSSTLTLSKADYEKHKVYACEVTHQGLSSPVTKSFNRGEC
chain: SQQIYGVVYGNVTFHVPSNVPLKEVLWKKQKDKVAELENSEFRAFSSFKNRVYLDTVSGSLTIYNLTSSDEDEYEMESPNITDTMKFFLYVLESGGGGSDKTHTCPPCPAPELLGGPSVFLFPPKPKDTLMISRTPEVTCVVVAVSHEDPEVKFNWYVDGVEVHNAKTKPREEQYASTYRVVSVLTVLHQDWLNGKEYKCKVSNKALAAPIEKTISKAKGQPREPQVYTLPPCREEMTKNQVSLWCLVKGFYPSDIAVEWESNGQPENNYKTTPPVLDSDGSFFLYSKLTVDKSRWQQGNVFSCSVMHEALHNHYTQKSLSLSPGK
Karpas422 target cells
  cytotoxic activity: show cytotoxic activity
T cells
  binding to T cells (MFI): strongest binder followed by CD3med TSP1
Nalm6 target cells
  cytotoxic activity: showed cytotoxic activity
Oci-Ly19 target cells
  cytotoxic activity: showed cytotoxic activity
Toledo target cells
  cytotoxic activity: showed cytotoxic activity
Karpas 422 cells
  killing ability upon repeated challenges with target cells: next best
OCI-LY-19 cells
  killing ability upon repeated challenges with target cells: next best
[1]; 0.1 mg/kg
  Δ Body weight from initial (%) (Mean ± SEM) Day 36: 0.165 ± 2.561%
  Δ Tumor burden from initial (mm^3) (Mean) Day 36: −19.77 mm^3
  Regression (%): 13.51%
[1]; 0.3 mg/kg
  Δ Body weight from initial (%) (Mean ± SEM) Day 36: 3.214 ± 1.737%
  Δ Tumor burden from initial (mm^3) (Mean) Day 36: −124.57 mm^3
  Regression (%): 85.13%
[1]; 1.0 mg/kg
  Δ Body weight from initial (%) (Mean ± SEM) Day 36: 3.839 ± 1.597%
  Δ Tumor burden from initial (mm^3) (Mean) Day 36: −132.92 mm^3
  Regression (%): 90.86%
[2]; 0.003 mg/kg
  Survival (survivors/total): 8/8
[2]; 0.01 mg/kg
  Survival (survivors/total): 8/8
[2]; 0.03 mg/kg
  Survival (survivors/total): 8/8
[2]; 0.1 mg/kg
  Survival (survivors/total): 8/8
[2]; 0.3 mg/kg
  Survival (survivors/total): 8/8
[3]; 0.01 mg/kg
  Δ Body weight from initial (%) (Mean ± SEM) Day 24: 12.7 ± 1.8%
  Δ Tumor burden from initial (mm^3) (Mean ± SEM) Day 24: 1139.3 ± 155.7 mm^3
  ΔT/ΔC (%): 100%
[3]; 0.03 mg/kg
  Δ Body weight from initial (%) (Mean ± SEM) Day 24: 4.8 ± 3.7%
  Δ Tumor burden from initial (mm^3) (Mean ± SEM) Day 24: 954.8 ± 180.1 mm^3
  ΔT/ΔC (%): 90.3%
[3]; 0.1 mg/kg
  Δ Body weight from initial (%) (Mean ± SEM) Day 24: 0.3 ± 2.5%
  Δ Tumor burden from initial (mm^3) (Mean ± SEM) Day 24: 843.2 ± 196.5 mm^3
  ΔT/ΔC (%): 79.8%
[3]; 0.3 mg/kg
  Δ Body weight from initial (%) (Mean ± SEM) Day 24: −3.0 ± 2.2%
  Δ Tumor burden from initial (mm^3) (Mean ± SEM) Day 24: 284.0 ± 200.9 mm^3
  ΔT/ΔC (%): 26.9%
[3]; 1.0 mg/kg
  Δ Body weight from initial (%) (Mean ± SEM) Day 24: 3.1 ± 2.5%
  Δ Tumor burden from initial (mm^3) (Mean ± SEM) Day 24: 35.5 ± 57.6 mm^3
  ΔT/ΔC (%): 0.05* %
